According to publication PMC6128693:
These are yes or no findings as the source states them, for the method shown. For part of these data: Binding seen in cells or lysates may run through a third protein. Some entries that bind do so weakly or less than the wild type. Where a sequence is shown, tags or fusion partners need not be part of it. Values belong to the binder of their own block, whether it stands above or below them.

Key:
[1] = biological target: T1, UBP22 (AT5G10790), yeast two-hybrid fusion (Arabidopsis thaliana) (UniProt Q9LEW0); assay: two-hybrid; pairwise assays, Matchmaker (Clontech) system; bait and prey empty vectors as negative controls; 3AT chase control for DDA1-SGF11
T1 sequence: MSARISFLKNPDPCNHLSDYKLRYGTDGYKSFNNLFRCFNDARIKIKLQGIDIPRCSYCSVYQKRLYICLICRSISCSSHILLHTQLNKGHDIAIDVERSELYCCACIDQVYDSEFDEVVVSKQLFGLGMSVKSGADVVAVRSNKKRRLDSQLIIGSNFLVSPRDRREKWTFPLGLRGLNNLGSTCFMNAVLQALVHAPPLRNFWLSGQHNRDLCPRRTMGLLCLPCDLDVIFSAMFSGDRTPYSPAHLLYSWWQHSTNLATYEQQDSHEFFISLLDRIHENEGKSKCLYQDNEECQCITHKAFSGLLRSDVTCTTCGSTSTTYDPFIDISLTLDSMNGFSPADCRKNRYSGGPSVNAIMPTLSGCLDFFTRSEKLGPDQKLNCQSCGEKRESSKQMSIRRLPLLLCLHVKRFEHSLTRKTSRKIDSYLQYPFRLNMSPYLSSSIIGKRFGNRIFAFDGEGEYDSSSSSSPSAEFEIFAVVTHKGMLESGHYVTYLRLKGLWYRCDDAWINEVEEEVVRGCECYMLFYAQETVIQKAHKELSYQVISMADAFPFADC

[2] = biological target: T2, ENY2 (AT3G27100), yeast two-hybrid fusion (Arabidopsis thaliana) (UniProt Q6NQ54); assay: as above
T2 sequence: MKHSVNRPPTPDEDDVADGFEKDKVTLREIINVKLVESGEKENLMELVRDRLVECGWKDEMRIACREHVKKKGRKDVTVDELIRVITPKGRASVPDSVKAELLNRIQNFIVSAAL

[3] = biological target: T3, DDB1a, BiFC translational fusion (Arabidopsis thaliana) (UniProt Q9M0V3); assay: split reporter; BiFC in Nicotiana benthamiana leaf epidermal cells, Agrobacterium co-infiltration with p19, live confocal imaging 3 days (72 hr) after infiltration
T3 sequence: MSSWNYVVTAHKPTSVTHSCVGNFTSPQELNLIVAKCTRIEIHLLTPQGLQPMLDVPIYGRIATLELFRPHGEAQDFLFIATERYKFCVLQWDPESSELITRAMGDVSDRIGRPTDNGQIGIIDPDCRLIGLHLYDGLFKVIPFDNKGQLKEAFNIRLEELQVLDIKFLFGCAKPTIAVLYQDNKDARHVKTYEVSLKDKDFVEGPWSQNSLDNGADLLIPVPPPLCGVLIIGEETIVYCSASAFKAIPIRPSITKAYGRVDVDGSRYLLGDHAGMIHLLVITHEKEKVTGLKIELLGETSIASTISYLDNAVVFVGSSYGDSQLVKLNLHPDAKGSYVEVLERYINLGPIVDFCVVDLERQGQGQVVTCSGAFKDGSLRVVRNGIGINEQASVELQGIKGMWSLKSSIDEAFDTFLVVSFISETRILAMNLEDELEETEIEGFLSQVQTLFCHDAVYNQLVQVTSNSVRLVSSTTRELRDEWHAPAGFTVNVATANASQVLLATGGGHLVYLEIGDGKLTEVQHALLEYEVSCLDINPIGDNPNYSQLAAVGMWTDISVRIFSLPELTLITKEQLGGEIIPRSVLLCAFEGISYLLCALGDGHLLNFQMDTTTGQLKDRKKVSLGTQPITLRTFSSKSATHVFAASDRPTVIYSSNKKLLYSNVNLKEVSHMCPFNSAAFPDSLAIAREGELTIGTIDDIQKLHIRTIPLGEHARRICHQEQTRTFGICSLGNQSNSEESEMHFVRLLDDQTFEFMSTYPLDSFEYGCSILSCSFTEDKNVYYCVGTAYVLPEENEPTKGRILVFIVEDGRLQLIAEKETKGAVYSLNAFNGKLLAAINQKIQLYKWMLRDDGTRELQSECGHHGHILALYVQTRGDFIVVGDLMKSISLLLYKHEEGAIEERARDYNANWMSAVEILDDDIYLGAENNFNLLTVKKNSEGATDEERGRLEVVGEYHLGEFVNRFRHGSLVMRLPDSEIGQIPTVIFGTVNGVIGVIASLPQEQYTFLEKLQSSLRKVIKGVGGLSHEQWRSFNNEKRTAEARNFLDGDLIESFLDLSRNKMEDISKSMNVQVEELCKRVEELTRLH

[4] = biological target: T4, ENY2, BiFC translational fusion (Arabidopsis thaliana) (UniProt Q6NQ54); assay: as above
T4 sequence: T2 sequence

[5] = biological target: T5, CONSTITUTIVE PHOTOMORPHOGENIC 10 (COP10), BiFC translational fusion (Arabidopsis thaliana) (UniProt Q9LJD7); assay: as above
T5 sequence: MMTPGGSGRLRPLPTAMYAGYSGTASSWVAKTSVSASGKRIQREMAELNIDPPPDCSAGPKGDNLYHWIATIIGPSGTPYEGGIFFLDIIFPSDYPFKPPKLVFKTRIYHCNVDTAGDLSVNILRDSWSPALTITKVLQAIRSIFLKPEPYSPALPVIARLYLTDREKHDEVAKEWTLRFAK

[6] = biological target: T6, UBP22, BiFC translational fusion (Arabidopsis thaliana) (UniProt Q9LEW0); assay: as above
T6 sequence: T1 sequence

binding [1]: binds | binding [2]: binds
B1: SGF11 (AT5G58575), yeast two-hybrid fusion (protein, UniProt Q94BV2 1-181)
chain: MSGAEDNKSSHAQLSSQIFLDLVDSVIADVASECHRVARLGLDRDLDIVEEELRLSVEARAKIADPSNNLETNTKYVVDIFGQTHPPVASEVFNCMNCGRQIVAGRFAPHLEKCMGKGRKARAKTTRSTTAAQNRNARRSPNPRYSPYPNSASENQLASGSPGVAGEDCSNFTVRENVKGD

binding [3]: no binding | binding [4]: binds | binding [5]: no binding | binding [6]: binds
B2: SGF11, BiFC translational fusion (protein, UniProt Q94BV2 1-181)
chain: B1 chain
